# PubChem BioAssay AID504466 (National Center for Advancing Translational Sciences (NCATS), 2011)
# Among all 330,000 compounds or so, about 4,200 (1.3%) were called active. The inconclusive results got no clear call from the source; some entries with a clear call stand among them for comparison. Calls come from the whole dose curve; as a rule, active = well fitted activation curve with a large enough effect; inconclusive = small, poorly fitted or top-dose-only effect; inactive = no such curve, though single readings can be large or run the other way. A potency beside an inconclusive call is a rough fit, not a confirmed value.
# Assay: qHTS screen for small molecules that induce genotoxicity in human embryonic kidney (HEK293T) cells expressing luciferase-tagged ELG1; note: nearly all actives have a fitted effect of over 60% in size
# Conditions: HEK293T ELG1-luciferase reporter, luminescence, 16 h; series mostly up to 46 µM
# How it was run: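 Genotoxic stress is detected as increased luminescence from luciferase-tagged ELG1 in HEK293T cells, measured with ONE-Glo after a 16 hr treatment at 37 °C.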
# Potency is the fitted concentration of half-maximal effect; tags give direction and shape of the fitted curve.
row,SMILES,Potency
1,C/C(N)=C(/C#N)C(=O)COC(=O)c1cc2c(s1)CCCC2,"inconclusive: 32.6 µM [activator, partial curve, poor fit]"
2,Cn1cccc1C(=O)OCC(=O)NCCCc1ccccc1,inactive
3,CCOC(=O)c1cn[nH]c1NC(=S)Nc1ccc(OC)cc1,"inconclusive: 0.411 µM [activator, partial curve, poor fit]"
4,CCOC(=O)c1[nH]c2ccc(Br)cc2c1NC(=O)CCN1CCCC(C)(C)C1,inactive
5,Cc1c(Cc2ccccc2)c(=O)oc2c(C)c(OCC(=O)Nc3ccc(C#N)cc3)ccc12,"inconclusive: 29.1 µM [activator, partial curve, poor fit]"
6,CC(=O)NC12CC3CC(C1)CC(C(=O)N(C)CC(=O)Nc1ccccc1Cl)(C3)C2,inactive
7,CCN(CC)c1ccc(/C=N/NC(=O)c2ccco2)cc1,active: 5.8 µM
8,CCn1c(=O)cc(OCC(=O)N2CCN(C(=O)c3ccco3)CC2)c2ccccc21,"inconclusive: 20.6 µM [activator, single point]"
9,CCOC(=O)c1sc(NC(=O)c2sc(C)nc2C)nc1C,"inconclusive: 20.6 µM [activator, partial curve, poor fit]"
10,CCN(CCCNC(=O)c1[nH]c(C)c(C(C)=O)c1C)c1ccccc1,"inconclusive: 20 µM [activator, single point]"
11,O=C(CCl)Nc1ccc(N2CCCCCC2)cc1,inactive
12,COc1ccc2cc3cc(C(=O)NC(C)C)oc3nc2c1,"inconclusive: 3.66 µM [activator, full curve]"
13,COc1ccc(-c2cn3ccsc3n2)cc1,"inconclusive: 2.59 µM [activator, full curve]"
14,COc1cccc(NC(=O)C(=O)NCc2ccncc2)c1,"inconclusive: 10.3 µM [activator, partial curve]"
15,COC(=O)Nc1nnc(/C=C/c2ccc(OC)cc2)s1,"inconclusive: 14.6 µM [activator, partial curve]"
16,CC(=NC1CCCC1)c1c(C)[nH]n(-c2nc3ccccc3s2)c1=O,"inconclusive: 1.64 µM [activator, full curve]"
17,COc1cccc2sc(N(CCCN(C)C)C(=O)c3ccc(S(=O)(=O)N4CCc5ccccc5C4)cc3)nc12,"inconclusive: 29.1 µM [activator, partial curve, poor fit]"
18,Cc1cc2nc(CO)[nH]c2cc1C,inactive
19,CCCN1C(=O)C(=O)N(CC(=O)c2cc(C)n(C3CC3)c2C)C1=O,"inconclusive: 16.4 µM [activator, partial curve, poor fit]"
20,Cc1ccc(S(=O)(=O)NCCC(=O)NC2CCN(Cc3ccccc3)CC2)cc1,"inconclusive: 20.6 µM [activator, single point]"
21,Cc1ccccc1-c1nnc(SCc2ccc(F)cc2)o1,"inconclusive: 20.6 µM [activator, partial curve]"
22,COc1ccc(C(=O)Nc2nc(C)c3cc4c(cc3n2)OCO4)cc1,"inconclusive: 29.1 µM [activator, partial curve, poor fit]"
23,COc1ccc(-c2nn(C)c3sc(C(=O)NCCN(C)C)cc23)cc1OC,inactive
24,CC(C)C(=O)Nc1ccc(NC(=S)NC(=O)c2cc3ccccc3o2)cc1,"inconclusive: 8.2 µM [activator, partial curve, poor fit]"
25,CS(=O)(=O)N1N=C(c2ccc(Br)cc2)CC1c1ccc2c(c1)OCO2 (stereo not given),"inconclusive: 0.731 µM [activator, full curve]"

row,SMILES,Potency
1,Nc1nc(-c2cccnc2)nc2sc3c(c12)CCCC3,active: 7.3 µM
2,O=C(Cn1c(=O)sc2ccccc21)NCc1ccccn1,active: 18.4 µM
3,Cc1ccn2cc(-c3cnoc3C)nc2c1,"inconclusive: 23.1 µM [activator, single point]"
4,Cc1ccc(NC(=O)C(=O)NC2CCCCC2)cc1,"inconclusive: 1.78 µM [activator, full curve, poor fit]"
5,O=C1CCN(CCc2ccccc2)CCN1CCSc1ccccc1,"inconclusive: 18.3 µM [activator, partial curve, poor fit]"
6,Cc1ccc(NC(=O)Cn2ccc([N+](=O)[O-])n2)cc1Cl,inactive
7,COc1ccc(N(C(=O)CNC(=O)c2ccco2)C(C(=O)NC2CCCC2)c2ccco2)cc1 (stereo not given),inactive
8,N#C/C(=C\c1ccc(Cl)cc1)c1nc2ccccc2o1,inactive
9,CC1CCN(C(=O)CSc2nnc(CNC(=O)c3c(F)cccc3F)o2)CC1,inactive
10,CC(CN1CCC(n2nccc2NC(=O)CCCc2ccccc2)CC1)c1ccccc1 (stereo not given),inactive
11,Cn1c(CS/C(N)=N/N=C/c2ccccc2)c(Br)c(=O)n1-c1ccccc1,inactive
12,CCS(=O)(=O)Nc1cccc(-c2ccc3nnc(C)n3n2)c1,"inconclusive: 18.3 µM [activator, single point]"
13,Cn1c2ccccc2c(=O)c2ccc(NCCc3cccs3)cc21,"inconclusive: 2.06 µM [activator, partial curve]"
14,O=C(Cn1nnc(-c2ccc3c(c2)OCO3)n1)Nc1ccccc1C(=O)O,"inconclusive: 20.6 µM [activator, single point]"
15,O=C(Cc1ccccn1)c1ccc(F)cc1,inactive
16,CCCCCn1c(N)c(-c2nc3ccccc3o2)c2c([N+](=O)[O-])nn(CC)c(=O)c21,"inconclusive: 25.9 µM [activator, partial curve, poor fit]"
17,Nc1cccn2c(-c3ccc(Cl)c(Cl)c3)cnc12,"inconclusive: 1.83 µM [activator, full curve]"
18,COC(=O)c1ccc(/C=N/Nc2nc3ccccc3[nH]2)cc1,active: 20.6 µM
19,Nc1c(C(=O)Nc2cccc(F)c2)nnn1-c1ccc2c(c1)OCCO2,active: 0.651 µM
20,CC(=O)NCCNC(=O)c1ccc(-n2c(C)ccc2C)cc1,active: 23.1 µM
21,CC(C)N=c1scc(-c2cccs2)n1/N=C/c1ccc(O)c(O)c1O,"inconclusive: 20.6 µM [activator, partial curve, poor fit]"
22,O=C(CN1CCN(c2ccc(F)cc2)CC1)Nc1ccccc1[N+](=O)[O-],inactive
23,COc1cccc2[nH]c(C(=O)NCCc3ccccc3)cc12,"inconclusive: 20.6 µM [activator, partial curve, poor fit]"
24,O=C(CSc1nnc2ccccn12)c1ccccc1,active: 11.6 µM
25,CCc1noc(C)c1C(=O)Nc1ncc(C)s1,"inconclusive: 12.6 µM [activator, partial curve]"

row,SMILES,Potency
1,CCOc1ccc2nc(N3CCCC(C(=O)NCCCN4CCOCC4)C3)sc2c1 (stereo not given),"inconclusive: 16.4 µM [activator, single point]"
2,Cc1nnc(NC(=O)c2ccc(N3CCCC3=O)cc2)s1,"inconclusive: 29.1 µM [activator, partial curve, poor fit]"
3,O=C(CNC(=O)c1cccs1)Nc1ccc2c(c1)OCCO2,active: 1.64 µM
4,C#CC(C)(CC)NC(=O)c1cc2nc(C3CC3)cc(C(F)(F)F)n2n1 (stereo not given),inactive
5,Fc1ccc2nc(N3CCCC3)sc2c1,"inconclusive: 2.31 µM [activator, full curve]"
6,O=[N+]([O-])c1ccc(/C=C/c2ccc3cccc(O)c3n2)cc1,"inconclusive: 8.2 µM [activator, partial curve]"
7,O=C(NCc1ccccc1)NC(=O)c1ccccc1F,"inconclusive: 23.1 µM [activator, partial curve, poor fit]"
8,Cc1ccc(NC(=S)Nn2cnnc2)c(C)c1,inactive
9,Brc1ccc(-c2noc(-c3ccccn3)n2)o1,"inconclusive: 2.31 µM [activator, partial curve]"
10,Cc1ccc2oc(-c3ccccc3)nc2c1,"inconclusive: 7.31 µM [activator, partial curve]"
11,CCN1CCN(c2ccc(NC(=O)c3cnccn3)cc2)CC1,"inconclusive: 14.6 µM [activator, partial curve, poor fit]"
12,COc1ccc(Nc2ncnc3c2cnn3Cc2ccccc2)cc1,inactive
13,CCC1CCCCN1C(=O)CCc1nnc(C2CCCCC2)o1 (stereo not given),inactive
14,O=C(O)c1ccc(S(=O)(=O)NCc2ccc3c(c2)OCO3)cc1,inactive
15,CCOC(=O)Cc1csc(NS(=O)(=O)c2ccc3c4c(cccc24)C(=O)N3CC)n1,"inconclusive: 20.6 µM [activator, partial curve, poor fit]"
16,Cc1ccccc1NC(=O)/C=C/c1ccc([N+](=O)[O-])s1,"inconclusive: 5.17 µM [activator, partial curve, poor fit]"
17,CCCC1CCC(C(=O)Nn2c(C)nc3ccccc3c2=O)CC1 (stereo not given),inactive
18,Nc1cc(Cl)ccc1Oc1ccc2ccccc2c1,"inconclusive: 20.6 µM [activator, single point]"
19,COc1ccc(NC(=O)Nc2cccc3ccccc23)cc1S(N)(=O)=O,inactive
20,Nc1cc(N)nc(SCCOc2ccccc2F)n1,"inconclusive: 20.6 µM [activator, single point]"
21,COC(=O)C1CCN(C(=O)/C=C/c2ccc3c(c2)OCO3)CC1,"inconclusive: 6.51 µM [activator, partial curve, poor fit]"
22,Fc1ccccc1OCCSc1nnnn1-c1ccccc1,active: 10 µM
23,CCCC(=O)OC/C(O)=C(\C#N)c1nc2ccccc2[nH]1,"inconclusive: 29.1 µM [activator, single point]"
24,CC1(C)CC(NC(=O)COc2ccccc2Cl)CC(C)(C)N1,"inconclusive: 18.3 µM [activator, single point]"
25,CCCc1cc(=O)[nH]c(SCC(=O)N2c3ccccc3NC(=O)C2(C)C)n1,inactive
